Data: the supplement of paper PMC10126150
Values marked as one replicate rest on one cluster of the flow cell; about a third of the high ones do not repeat.

Tested on: ATP
Experiment: switch fluorescence ratio, 500 uM ATP over buffer (Cy3 cluster intensity, sum of 5 cycles each) (fold (ratio)); higher = stronger signal-on switching upon ATP binding; sequences stand for … in TCGTCGGCAGCGTCAGATGTGTATAAGAGACAGTTTTTTTTTTTTTTTTTTTTTTTTT…TC
Details: aptamer strand: ATP DNA aptamer (quencher-CACCTGGGGGAGTATTGCGGAGGAAGG + anchor), 100 nM annealed; ATP concentration: 500 uM; one replicate
Method in brief: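 Imaging in selection buffer was followed by imaging after 15 min with 500 uM ATP at 22 °C, for Cy3-labelled switching-strand clusters annealed to 100 nM quencher-labelled ATP aptamer on a modified Illumina MiSeq flow-cell. Five of these buffer/ATP cycles ran, separated by NaOH stripping and re-annealing. The fluorescence ratio per cluster is summed target-cycle over summed buffer-cycle Cy3 intensity, averaged per switch-domain sequence; clusters outside 100-1000 RFU were removed.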
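Note: ATP exposure 15 min at 22 °C before imaging.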

| Sequence | switch fluorescence ratio |
| --- | --- |
| ATATCCGGCC | 1.06 |
| AACAATGTTT | 0.987 |
| GCTAGCACGG | 0.98 |
| ATGACTAT | 0.947 |
| CGGTCTATC | 1.02 |
| CTGATTTGGG | 1.04 |
| ATGACGGGGA | 1 |
| ACCAGGGGTC | 1.25 |
| GGGTCATTAT | 1.01 |
| CGAAGCTCTT | 1.99 |
| CCACACAACT | 1.15 |
| AGTTAGTCTT | 0.956 |
| TGCGACGGGG | 0.962 |
| AGTATATTAC | 1.03 |
| TGGTCAAGGT | 0.985 |
| CGCTTGTCGC | 0.999 |
| GCACCTTCAT | 1.48 |
| CTCCTCGCCG | 1.07 |
| GAGCTGGCTC | 1.03 |
| GGTTAATTAT | 1.01 |
| GTCCCTCGAA | 1 |
| TGTTCCCTAG | 1.02 |
| ATTGAGAGTA | 0.99 |
| CTTTTGGAAC | 0.992 |
| ATCCGGGGCT | 1.03 |

| Sequence | switch fluorescence ratio |
| --- | --- |
| TTGTGTGGCC | 0.944 |
| TTAGTTTCCT | 1.04 |
| CCAAAAACGC | 1.09 |
| GGGGCGATCT | 1.01 |
| AAATTACACG | 1.1 |
| CTAGCAAACA | 1.19 |
| TCAGACAATT | 1.05 |
| AAGTATACGT | 1.03 |
| TAGAAATCAT | 0.952 |
| CGCGCACTTG | 1 |
| ATTCCCGCTC | 1.87 |
| TTGCGGTCA | 1.02 |
| TTCTGTAACT | 1.04 |
| ATAGGCGTCA | 0.99 |
| ACCCGGCCTG | 1.01 |
| TCGGTGAGG | 1.02 |
| AGGAAACGGA | 1.06 |
| CATTAGTCGG | 0.992 |
| TGGGGGCGAT | 1.57 |
| AACATGAGTA | 1.01 |
| ATGTAAATTG | 1.01 |
| GCTGCCCTTT | 1.01 |
| GGCGCTGATG | 1.02 |
| CACTGGACCG | 1.09 |
| TTAATGAGAG | 1.03 |

| Sequence | switch fluorescence ratio |
| --- | --- |
| GGGGCGCTAT | 1.1 |
| AATCATCGG | 0.965 |
| TCGTCATCTC | 1 |
| AACGCTCTGA | 1.02 |
| AGCGACATGT | 1.01 |
| TGGAAAACCA | 0.997 |
| TAGCCCTATT | 1.01 |
| ATTGGGCTTA | 1.05 |
| TTGAACGTAC | 1.9 |
| CACGCGTGAT | 0.965 |
| ATGGTCCCGT | 1.01 |
| TTTGTAAGCG | 1.04 |
| TCCGAAGTTG | 2.35 |
| GCAACCTTTC | 2.93 |
| CATAAGACTT | 0.996 |
| AATATGAATG | 0.995 |
| GATCATACAT | 1.01 |
| ACATAGGTCG | 1.11 |
| TGTAGCGTGG | 1.04 |
| TCTTGCGAGC | 0.977 |
| TGCTAGCGGC | 0.986 |
| GACCCCCGAG | 1.03 |
| CATTTGAAAG | 1.02 |
| AGTCTAAGTC | 0.967 |
| AGGCGCTGGT | 0.984 |

| Sequence | switch fluorescence ratio |
| --- | --- |
| TATATTCGGA | 1.02 |
| TCGCGTTTAC | 1.59 |
| ATAGCGGCAA | 1.23 |
| CCGCGAAACG | 5.67 |
| CTCTGGTTTC | 1.18 |
| TCGTTTCAGT | 1.01 |
| TCTATATCGA | 0.989 |
| CCTCAAGAGA | 3.71 |
| CTGGGACCCG | 0.956 |
| GATGTACTGG | 1.03 |
| GCTGTTAAAC | 1.04 |
| ACTAAGGTAG | 1.01 |
| CGCCTTAGGT | 1.02 |
| GCAGCCGCTA | 1.21 |
| CTGGACATAT | 1.01 |
| GGAGGGAAGT | 1 |
| TTACTTAGAA | 0.959 |
| GCAATCTGTG | 1.24 |
| TCCATCAGTC | 1.01 |
| AATGAATCTG | 0.997 |
| GCTCTGTGGA | 1.04 |
| TGGTCCAATC | 0.999 |
| GCCGCGGACC | 1.16 |
| GGGGAGCCTG | 0.959 |
| GCTGATGCTT | 1.02 |

| Sequence | switch fluorescence ratio |
| --- | --- |
| ATAAAGGTAA | 0.979 |
| TTGTTTATTA | 0.945 |
| GATCAGGACT | 1 |
| TGGGGGGCT | 1.05 |
| TATATTACAC | 1.03 |
| GATAGGAGTT | 1.02 |
| GGCCCGAACT | 1.01 |
| GATGAATTTG | 1.03 |
| TGTCCAATGC | 1.68 |
| GCGTAATTCG | 1.02 |
| TGTTTGGACA | 1.02 |
| GGGGTGCTCG | 1 |
| TGCTGCTTCT | 0.971 |
| CAGGTGAAGG | 1.15 |
| AAACCTATTT | 0.948 |
| TAGACGGGTT | 1.02 |
| ACTAAAACAA | 1.07 |
| ATGCTTGATA | 0.988 |
| TTCTACCGCA | 4.51 |
| AGACTTACAT | 1.2 |
| GAATTATCCT | 1.06 |
| GTGCGTGCGA | 0.987 |
| GCCAGGGCCT | 1.01 |
| GGAATGGTGT | 1.03 |
| GGAAGGGCAC | 1.02 |

| Sequence | switch fluorescence ratio |
| --- | --- |
| AACAGAGCTT | 1.02 |
| GTACTTAGCG | 1.04 |
| TTTACTTTAG | 1.01 |
| GGGGTGAAAG | 0.982 |
| TGCGACCGGA | 1.02 |
| AAGTGTGGCC | 0.984 |
| CTCTTACCT | 0.997 |
| GAGACCATAA | 0.99 |
| ATCGTTTTTG | 0.96 |
| CAGAGGTCGA | 0.989 |
| ATACTAGATG | 1.03 |
| AGGACATCTG | 0.922 |
| CACCAATCTC | 1.19 |
| CAGTCACTG | 0.98 |
| GGGACCCGGT | 1.05 |
| GTTACTCTC | 0.977 |
| TATGACGGCA | 0.992 |
| CGTGCTCGGG | 1.05 |
| AAGGCATGTA | 0.965 |
| ACCAGGGCCA | 1.05 |
| ACCCACGGAA | 1.42 |
| ATCGGGCTGA | 1.01 |
| TGCGGAGGAA | 1.07 |
| TTCTCGGCTG | 1.03 |
| ATGTCCGTAT | 0.855 |

| Sequence | switch fluorescence ratio |
| --- | --- |
| CCATGTGCTA | 1.11 |
| CCGCGCACGG | 1.27 |
| GGCGAACTCG | 1.27 |
| AAGGAGGATA | 1 |
| TTAAAGGCGC | 1 |
| CTATTGGTAG | 0.98 |
| TTTGTAAGGA | 1.12 |
| TCGGCGGGAA | 0.997 |
| TCCCGGTCGG | 0.974 |
| TGTAATGATC | 1.09 |
| TTGTCGCCCG | 0.954 |
| TGTGAGATGA | 0.989 |
| ACAAGCTAGG | 1.01 |
| CCTTACAAGC | 1.87 |
| TTAGTCCAGT | 1.04 |
| CAGTGATTCA | 0.998 |
| TAGCGTTGAG | 0.986 |
| TAAGTAAAAC | 1.21 |
| GAAAGGAGTG | 1.03 |
| TTGGGGCTAC | 1.38 |
| TCAGCGGGTA | 1.03 |
| ACTTAAAAAA | 0.997 |
| ATGCTAGAGC | 1.02 |
| ACGATAAACA | 1.11 |
| ACCGTCAATG | 1.1 |

| Sequence | switch fluorescence ratio |
| --- | --- |
| GTTTGCGTGC | 0.976 |
| ACCTAGAGGT | 0.99 |
| TCCATCTATT | 0.996 |
| GTGCGGACCG | 1.02 |
| TAACACTAGG | 0.968 |
| CTATCCTAAT | 0.974 |
| CGGTGAGAAT | 1.07 |
| CCAACGAATA | 2.29 |
| GGACTTATTA | 0.983 |
| GGTTCTAACT | 0.998 |
| CGCTTTCTGT | 1.04 |
| TTATAACGGC | 1.06 |
| GTACGTAGCG | 1.06 |
| AAATTCGCTT | 1 |
| CTCACGGACC | 1.79 |
| CAAATGTGTG | 1.03 |
| AGGAAAACAC | 1.02 |
| AGCATGGTCA | 1 |
| GTATAGTGCG | 1 |
| CGCTGAGCGC | 1.01 |
| TCTAACGC | 2.42 |
| CGCTTTGATG | 0.99 |
| TATAGTCGA | 1.04 |
| GCTTACAGCA | 0.998 |
| ATGTGCGGAT | 1.03 |
